Lines with a small IC50 respond at low doses; a fit beyond the top or the lowest dose is shown as a bound at that dose. For AUC the same curve is integrated over the 256-fold range of doses and scaled to a fraction: 1 means no effect, lower means more sensitive. Bounds are passed on as bounds.

Compound in this assay: COc1ccc(C2=N[C@@H](c3ccc(Cl)cc3)[C@@H](c3ccc(Cl)cc3)N2C(=O)N2CCNC(=O)C2)c(OC(C)C)c1 [Nutlin-3a]
The assay is described as follows: Viability of human cancer cell lines after 72 h of drug (GDSC screen). The method, then: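 Human cancer cell lines in 384-well plates, medium with 10% serum, drug for 72 h over a 256-fold dose range (nine 2-fold or five 4-fold steps up to the top dose). Adherent lines were fixed and stained with the nucleic acid dye Syto60, suspension lines read with resazurin; signal relative to control wells, capped at 0 and 100%. One two-parameter sigmoid per drug and line, fitted in a mixed model over all curves with the slope shared within a line.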

Turning to “HCC-78 (lung adenocarcinoma, adherent, top dose 8 µM)”, the AUC was 0.971 and the IC50 was above 8 µM.
The corresponding values for “HCC-366 (non-small cell lung carcinoma, adherent, top dose 8 µM)” are 0.988 and above 8 µM.
The like results for “HCC-827 (lung adenocarcinoma, adherent, top dose 8 µM)” were, in that order, 0.917 and above 8 µM.
The like results for “HCT-15 (large intestine, adherent, top dose 8 µM)” were, in that order, 0.987 and above 8 µM.
As for “HD-MY-Z (Hodgkin lymphoma, adherent, top dose 8 µM)”, the AUC is 0.982 and the IC50 was above 8 µM.
Consider “HDLM-2 (Hodgkin lymphoma, suspension, top dose 8 µM)”, for which the AUC is 0.984 and the IC50 was above 8 µM.
The corresponding values for “HDQ-P1 (breast, adherent, top dose 8 µM)” are 0.984 and above 8 µM.
The corresponding values for “HEC-1 (endometrium, adherent, top dose 8 µM)” are 0.941 and above 8 µM.
In the case of “HGC-27 (stomach, adherent, top dose 8 µM)”, the AUC turned out to be 0.972 and the IC50 is above 8 µM.
The corresponding values for “HH (T-cell leukaemia, suspension, top dose 8 µM)” are 0.917 and above 8 µM.
The like results for “HL-60 (acute myeloid leukaemia, suspension, top dose 8 µM)” were, in that order, 0.961 and above 8 µM.
The corresponding values for HLE (liver, adherent, top dose 4 µM) are 0.97 and above 4 µM.
With “HN (head and neck, adherent, top dose 8 µM)”, the AUC was found to be 0.987 and the IC50 is above 8 µM.
Regarding “HO-1-u-1 (head and neck, adherent, top dose 8 µM)”, the AUC is 0.988 and the IC50 is above 8 µM.
The corresponding values for “HOP-62 (lung adenocarcinoma, adherent, top dose 8 µM)” are 0.982 and above 8 µM.
The corresponding values for “HOS (osteosarcoma, adherent, top dose 8 µM)” are 0.958 and above 8 µM.
The like results for “HSC-2 (head and neck, adherent, top dose 8 µM)” were, in that order, 0.988 and above 8 µM.
Turning to “HSC-39 (stomach, suspension, top dose 8 µM)”, the AUC stood at 0.981 and the IC50 is above 8 µM.
The like results for “HT55 (large intestine, adherent, top dose 8 µM)” were, in that order, 0.99 and above 8 µM.
The like results for “HT (B-cell lymphoma, suspension, top dose 8 µM)” were, in that order, 0.983 and above 8 µM.
The corresponding values for HT-3 (cervix, adherent, top dose 8 µM) are 0.987 and above 8 µM.
Regarding “HT-29 (large intestine, adherent, top dose 8 µM)”, the AUC stood at 0.988 and the IC50 was above 8 µM.
The corresponding values for “HT-115 (large intestine, adherent, top dose 8 µM)” are 0.991 and above 8 µM.
The like results for “HT-144 (melanoma, adherent, top dose 8 µM)” were, in that order, 0.747 and 2.82 µM.
The like results for “HT-1080 (fibrosarcoma, adherent, top dose 8 µM)” were, in that order, 0.835 and 4.51 µM.
Consider “HT-1197 (bladder, adherent, top dose 8 µM)”, for which the AUC is 0.903 and the IC50 is above 8 µM.
The like results for “HT-1376 (bladder, adherent, top dose 8 µM)” were, in that order, 0.977 and above 8 µM.
The corresponding values for “HUTU-80 (digestive system, adherent, top dose 8 µM)” are 0.484 and 0.457 µM.
In the case of HeLa (cervix, adherent, top dose 8 µM), the AUC was 0.989 and the IC50 is above 8 µM.
On to “Hep 3B2_1-7 (liver, adherent, top dose 8 µM)”, for which the AUC worked out at 0.987 and the IC50 is above 8 µM.
Consider Hey (ovary, adherent, top dose 8 µM), for which the AUC was 0.756 and the IC50 amounted to 2.59 µM.
Turning to “Hs633T (fibrosarcoma, adherent, top dose 8 µM)”, the AUC turned out to be 0.742 and the IC50 was determined as 2.1 µM.
The corresponding values for Hs683 (glioma, adherent, top dose 8 µM) are 0.963 and above 8 µM.
The like results for “Hs746T (stomach, adherent, top dose 8 µM)” were, in that order, 0.979 and above 8 µM.
The like results for “Hs766T (pancreas, adherent, top dose 8 µM)” were, in that order, 0.955 and above 8 µM.
“Hs939-T (melanoma, adherent, top dose 8 µM)”: the AUC amounted to 0.84 and the IC50 worked out at 6.28 µM.
The like results for “Hs-578-T (breast, adherent, top dose 8 µM)” were, in that order, 0.987 and above 8 µM.
The corresponding values for “HuCCT1 (biliary tract, adherent, top dose 8 µM)” are 0.934 and above 8 µM.
The like results for HuH-7 (liver, adherent, top dose 8 µM) were, in that order, 0.983 and above 8 µM.
Regarding “HuO9 (osteosarcoma, adherent, top dose 8 µM)”, the AUC is 0.962 and the IC50 is above 8 µM.
The corresponding values for “HuO-3N1 (osteosarcoma, adherent, top dose 8 µM)” are 0.982 and above 8 µM.
The corresponding values for “HuP-T3 (pancreas, adherent, top dose 8 µM)” are 0.98 and above 8 µM.
The corresponding values for “HuP-T4 (pancreas, adherent, top dose 8 µM)” are 0.984 and above 8 µM.
For the cell line “IA-LM (large cell lung carcinoma, adherent, top dose 8 µM)”, the AUC is 0.985 and the IC50 was above 8 µM.
The like results for “IGR-1 (melanoma, adherent, top dose 8 µM)” were, in that order, 0.921 and above 8 µM.
For “IGR-37 (melanoma, adherent, top dose 8 µM)”, the AUC turned out to be 0.988 and the IC50 is above 8 µM.
On to “IGROV-1 (ovary, adherent, top dose 8 µM)”, for which the AUC was 0.885 and the IC50 was above 8 µM.
With “IHH-4 (thyroid, semi-adherent, top dose 8 µM)”, the AUC worked out at 0.808 and the IC50 came out at 3.19 µM.
The corresponding values for “IM-9 (myeloma, suspension, top dose 8 µM)” are 0.962 and above 8 µM.
Regarding “IMR-5 (neuroblastoma, adherent, top dose 8 µM)”, the AUC was 0.921 and the IC50 was above 8 µM.
The like results for “IPC-298 (melanoma, adherent, top dose 8 µM)” were, in that order, 0.988 and above 8 µM.
The corresponding values for “IST-MEL1 (melanoma, adherent, top dose 8 µM)” are 0.964 and above 8 µM.
With “IST-SL1 (small cell lung carcinoma, semi-adherent, top dose 8 µM)”, the AUC stood at 0.986 and the concentration for half-maximal inhibition (IC50) was above 8 µM.
In the case of “IST-SL2 (small cell lung carcinoma, suspension, top dose 8 µM)”, the AUC amounted to 0.989 and the IC50 is above 8 µM.
The like results for “JEKO-1 (B-cell lymphoma, suspension, top dose 8 µM)” were, in that order, 0.942 and above 8 µM.
The corresponding values for JHH-1 (liver, adherent, top dose 8 µM) are 0.92 and above 8 µM.
The corresponding values for JHH-2 (liver, adherent, top dose 8 µM) are 0.986 and above 8 µM.
For JHH-4 (liver, adherent, top dose 8 µM), the AUC came to 0.982 and the IC50 was above 8 µM.
The like results for JHH-7 (liver, adherent, top dose 8 µM) were, in that order, 0.989 and above 8 µM.
The like results for JHOS-2 (ovary, adherent, top dose 8 µM) were, in that order, 0.922 and above 8 µM.
The corresponding values for JHOS-3 (ovary, adherent, top dose 8 µM) are 0.984 and above 8 µM.
Take JHOS-4 (ovary, adherent, top dose 8 µM): the AUC was 0.98 and the IC50 is above 8 µM.
The corresponding values for “JHU-011 (head and neck, adherent, top dose 8 µM)” are 0.956 and above 8 µM.
The like results for “JHU-022 (head and neck, adherent, top dose 8 µM)” were, in that order, 0.948 and above 8 µM.
The corresponding values for “JHU-029 (head and neck, adherent, top dose 8 µM)” are 0.977 and above 8 µM.
“JIMT-1 (breast, adherent, top dose 8 µM)”: the AUC came out at 0.962 and the IC50 was above 8 µM.
The like results for “JJN-3 (haematopoietic neoplasm, suspension, top dose 8 µM)” were, in that order, 0.992 and above 8 µM.
The corresponding values for “JM1 (B-cell lymphoma, suspension, top dose 8 µM)” are 0.884 and 6.5 µM.
The like results for “JSC-1 (B-cell lymphoma, suspension, top dose 8 µM)” were, in that order, 0.826 and 4.77 µM.

A word on the IC50: it is the concentration needed to halve the response being measured.

These data come from the supplement of paper PMC4967469.
